# Laboratory results published in the supplement of paper PMC8728848.
# Some of the results follow.
# How the values were obtained:
# Assay in all cases: glycan array binding signal (z-score within array); higher = stronger binding
# Details in all cases: glycan notation: IUPAC condensed, linker removed
# [1] = target: GlcNAc(b1-3)Gal(b1-4)GlcNAc(b1-3)GalNAc
# In short: (§1)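 The binding signal is a Z-score computed within each array. Data were drawn from 3228 arrays in the Consortium for Functional Glycomics database, restricted to those with a known protein sequence. Scores were averaged over arrays of the same protein sequence at different concentrations or buffers, and over linkers, and negative values can be taken as non-binding.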
# [2] = target: GlcNAc(b1-3)Gal(b1-4)GlcNAc(b1-3)[GlcNAc(b1-3)Gal(b1-4)GlcNAc(b1-3)]GalNAc
# In short: as §1
# [3] = target: GlcNAc(b1-3)Gal(b1-4)GlcNAc(b1-6)[Gal(b1-3)]GalNAc
# In short: as §1
# [4] = target: GlcNAc(b1-3)Gal(b1-4)GlcNAc(b1-6)[GlcNAc(b1-3)Gal(b1-3)]GalNAc
# In short: as §1
# [5] = target: GlcNAc(b1-3)Gal(b1-4)GlcNAc(b1-6)[GlcNAc(b1-3)]Gal(b1-4)GlcNAc
# In short: as §1
# [6] = target: GlcNAc(b1-3)GalNAc
# In short: as §1
# [7] = target: GlcNAc(b1-3)Man
# In short: as §1
# [8] = target: GlcNAc(b1-3)[GlcNAc(b1-4)][GlcNAc(b1-6)]GlcNAc
# In short: as §1
# [9] = target: GlcNAc(b1-3)[GlcNAc(b1-6)]Gal(b1-4)GlcNAc
# In short: as §1
# [10] = target: GlcNAc(b1-3)[GlcNAc(b1-6)]GalNAc
# In short: as §1
# [11] = target: GlcNAc(b1-4)Gal(b1-4)GlcNAc
# In short: as §1
# [12] = target: GlcNAc(b1-4)GlcNAc
# In short: as §1
# [13] = target: GlcNAc(b1-4)GlcNAc(b1-4)GlcNAc
# In short: as §1
# [14] = target: GlcNAc(b1-4)GlcNAc(b1-4)GlcNAc(b1-4)GlcNAc(b1-4)GlcNAc
# In short: as §1
# [15] = target: GlcNAc(b1-4)GlcNAc(b1-4)GlcNAc(b1-4)GlcNAc(b1-4)GlcNAc(b1-4)GlcNAc
# In short: as §1
# [16] = target: GlcNAc(b1-4)[GlcNAc(b1-6)]GalNAc
# In short: as §1
# [17] = target: GlcNAc(b1-6)Gal(b1-4)GlcNAc
# In short: as §1
# [18] = target: GlcNAc(b1-6)GalNAc
# In short: as §1
# [19] = target: GlcNAc3Prop(b1-4)GlcNAc
# In short: as §1
# [20] = target: GlcNAc6S(b1-3)Gal(b1-4)GlcNAc
# In short: as §1
# [21] = target: Kdn(a2-3)Gal(b1-3)GalNAc
# In short: as §1
# [22] = target: Kdn(a2-3)Gal(b1-3)GlcNAc
# In short: as §1
# [23] = target: Kdn(a2-3)Gal(b1-4)Glc
# In short: as §1
# [24] = target: Kdn(a2-3)Gal(b1-4)GlcNAc
# In short: as §1
# [25] = target: Kdn(a2-3)Gal(b1-4)[Fuc(a1-3)]GlcNAc
# In short: as §1
# [26] = target: Kdn(a2-6)Gal(b1-4)GlcNAc
# In short: as §1
# [27] = target: Man(a1-2)Man(a1-2)Man(a1-3)Man
# In short: as §1
# [28] = target: Man(a1-2)Man(a1-2)Man(a1-6)[Man(a1-3)]Man
# In short: as §1
# [29] = target: Man(a1-2)Man(a1-3)Man
# In short: as §1
# [30] = target: Man(a1-2)Man(a1-3)[Man(a1-2)Man(a1-6)]Man
# In short: as §1
# [31] = target: Man(a1-2)Man(a1-3)[Man(a1-2)Man(a1-6)]Man(a1-6)[Man(a1-2)Man(a1-2)Man(a1-3)]Man
# In short: as §1
# [32] = target: Man(a1-2)Man(a1-3)[Man(a1-2)Man(a1-6)]Man(a1-6)[Man(a1-2)Man(a1-2)Man(a1-3)]Man(b1-4)GlcNAc(b1-4)GlcNAc
# In short: as §1
# [33] = target: Man(a1-2)Man(a1-3)[Man(a1-6)]Man(a1-6)[Man(a1-2)Man(a1-3)]Man(b1-4)GlcNAc(b1-4)GlcNAc
# In short: as §1
# [34] = target: Man(a1-2)Man(a1-6)[Man(a1-3)]Man(a1-6)[Man(a1-2)Man(a1-2)Man(a1-3)]Man
# In short: as §1
# [35] = target: Man(a1-2)Man(a1-6)[Man(a1-3)]Man(a1-6)[Man(a1-2)Man(a1-2)Man(a1-3)]Man(b1-4)GlcNAc(b1-4)GlcNAc
# In short: as §1
# [36] = target: Man(a1-3)[Man(a1-6)]Man
# In short: as §1
# [37] = target: Man(a1-3)[Man(a1-6)]Man(a1-6)[Man(a1-2)Man(a1-3)]Man(b1-4)GlcNAc(b1-4)GlcNAc
# In short: as §1
# [38] = target: Man(a1-3)[Man(a1-6)]Man(a1-6)[Man(a1-3)]Man
# In short: as §1
binder,measurement,setting,value
"LSECtin (Homo sapiens), Q6UXB4 (protein) MDTTRYSKWGGSSEEVPGGPWGRWVHWSRRPLFLALAVLVTTVLWAVILSILLSKASTERAALLDGHDLLRTNASKQTAALGALKEEVGDCHSCCSGTQAQLQTTRAELGEAQAKLMEQESALRELRERVTQGLAEAGRGREDVRTELFRALEAVRLQNNSCEPCPTSWLSFEGSCYFFSVPKTTWAAAQDHCADASAHLVIVGGLDEQGFLTRNTRGRGYWLGLRAVRHLGKVQGYQWVDGVSLSFSHWNQGEPNDAWGRENCVMMLHTGLWNDAPCDSEKDGWICEKRHNC",glycan array binding signal (z-score),[1],-0.131
same,glycan array binding signal (z-score),[2],-0.126
same,glycan array binding signal (z-score),[3],-0.133
same,glycan array binding signal (z-score),[4],-0.143
same,glycan array binding signal (z-score),[5],-0.134
same,glycan array binding signal (z-score),[6],-0.143
same,glycan array binding signal (z-score),[7],-0.205
same,glycan array binding signal (z-score),[8],-0.118
same,glycan array binding signal (z-score),[9],-0.184
same,glycan array binding signal (z-score),[10],-0.151
same,glycan array binding signal (z-score),[11],-0.18
same,glycan array binding signal (z-score),[12],-0.132
same,glycan array binding signal (z-score),[13],-0.194
same,glycan array binding signal (z-score),[14],-0.251
same,glycan array binding signal (z-score),[15],-0.134
same,glycan array binding signal (z-score),[16],-0.195
same,glycan array binding signal (z-score),[17],-0.003
same,glycan array binding signal (z-score),[18],-0.146
same,glycan array binding signal (z-score),[19],-0.15
same,glycan array binding signal (z-score),[20],-0.182
same,glycan array binding signal (z-score),[21],-0.171
same,glycan array binding signal (z-score),[22],-0.203
same,glycan array binding signal (z-score),[23],-0.182
same,glycan array binding signal (z-score),[24],-0.141
same,glycan array binding signal (z-score),[25],-0.169
same,glycan array binding signal (z-score),[26],-0.149
same,glycan array binding signal (z-score),[27],-0.151
same,glycan array binding signal (z-score),[28],-0.121
same,glycan array binding signal (z-score),[29],-0.205
same,glycan array binding signal (z-score),[30],-0.133
same,glycan array binding signal (z-score),[31],-0.17
same,glycan array binding signal (z-score),[32],-0.214
same,glycan array binding signal (z-score),[33],-0.013
same,glycan array binding signal (z-score),[34],-0.144
same,glycan array binding signal (z-score),[35],-0.195
same,glycan array binding signal (z-score),[36],-0.212
same,glycan array binding signal (z-score),[37],-0.21
same,glycan array binding signal (z-score),[38],-0.194
